{"source": "PubChem BioAssay AID504706", "about": "(National Center for Advancing Translational Sciences (NCATS), 2011)", "note": "The whole screen tested about 320,000 compounds, of which about 200 (0.062%) were called active. The inconclusive results got no clear call from the source; some entries with a clear call stand among them for comparison. The call rests on the fitted dose curve; in most records, active means well fitted activation curve with a large enough effect; inconclusive means small, poorly fitted or top-dose-only effect; inactive means no such curve, though single readings can be large or run the other way. Potencies of inconclusive entries are left out as doubtful fits. Potency means the concentration at half of the fitted maximal effect; tags describe the fitted curve by direction and shape.", "data": [{"test": "qHTS assay for re-activators of p53 using a Luc reporter; further: nearly all actives have a fitted effect of over 45% in size; on activity change, positive = activation: % of control where 0% means no effect", "details": "H1299 p53-A138V BP100-luciferase reporter, luminescence, 24 h; series mostly up to 92.2 µM; activity change, positive = activation: at the top concentration", "source_text": "The p53 tumor suppressor plays a key role in suppression of tumorigenesis and in human carcinogenesis. It is frequently found inactivated in human cancers, mainly by point mutation. These point mutations are found in a wide variety of human cancers and a majority of them affect the DNA binding domain of the protein. The point mutations either alter native p53 conformation or abolish DNA contact. Additionally, cancer cells with p53 mutations are more resistant to chemo-radiation therapies. In order to find activators to reactivate this important protein, a cell-based screen for p53-dependent luciferase-reporter expression was developed. A p53-null H1299 lung cancer cell line was stably co-transfected with a temperature sensitive p53 mutant, p53-A138V, and a p53-responsive BP100-luciferase reporter. This cell model has previously been characterized in a gene chip profiling experiment for p53 activation. By lowering the culture temperature from 37 deg C (mutant p53 conformation) to 32 deg C (w.t. p53 conformation), a 30-60 fold increase in activation of luciferase activity is observed. At assay temperate, 37 deg C, basal reporter expression is very low and after the addition of detection reagent, a luminescent read-out is carried out. NIH Chemical Genomics Center [NCGC] NIH Molecular Libraries Probe Production Centers Network [MLPCN] MLPCN Grant: DA031088-01A1 Assay Provider (PI): Yi Sung, University of Michigan at Ann Arbor\n5ul of 1000 cells per well are dispensed in all wells except column 4, into white solid-bottom TC-treated Kalypsys plates. The cells are kept in Opti-MEM and supplemented with 10% FBS and dispensed using a Multidrop (Thermo). Then using the Kalypsys pin-tool, 23nl of compounds are pinned. The compounds are starting concentration at 10mM, with 1:5 dilution, 4 points, and the control compound nocodazole is pinned in column 1 at 25mM, 1:3 dilution, in duplicate, 25mM nocodazole is pinned in column 2. Please note, all concentrations are working concentrations. 5ul of 1pM purified luciferase enzyme is dispensed using the Kalypsys dispenser in column 4. Plates are incubated for 24 hrs at 37 deg C, 5% CO2, and 95% humidity. Then 4ul of the detection reagent Amplite (ABD Bioquest) is added using the Kalypsys dispenser. Plates are incubated for 10 min at ambient room temperature and are then read on the ViewLux (Perkin Elmer) using a clear filter for a luminescent read-out.", "values": [{"smiles": "C=CCN1C(=Nc2cccnc2)SCC1(O)c1ccc(C)cc1", "note": "(stereo not given)", "Potency": "inconclusive [activator, full curve, poor fit]"}, {"smiles": "Cc1cccc(C(=O)Nc2sc(-c3ccccc3)cc2C(=O)O)c1", "Potency": "inconclusive [activator, full curve, poor fit]"}, {"smiles": "Cc1ccc(C2/C(=C(/O)c3cnn(-c4ccccc4)c3C)C(=O)C(=O)N2CCN2CCOCC2)o1", "note": "(stereo not given)", "Potency": "inconclusive [activator, partial curve, poor fit]"}, {"smiles": "CCCCn1c(N)c(N(CC)C(=O)c2cc(Br)ccc2Cl)c(=O)[nH]c1=O", "Potency": "inconclusive [activator, single point]"}, {"smiles": "Cc1ccccc1C(=O)Nc1sc2c(c1C(=O)O)CCC2", "activity change, positive = activation": "inactive: 2.44%"}, {"smiles": "Cc1csc(NC(=O)/C=C/c2ccc(C)o2)n1", "Potency": "inconclusive [activator, partial curve, poor fit]"}, {"smiles": "O=[N+]([O-])c1ccc(N/N=C/c2cccc(O)c2O)cc1", "Potency": "inconclusive [activator, partial curve, poor fit]"}, {"smiles": "c1ccc(Cc2nnc3sc(-c4ccccn4)nn23)cc1", "Potency": "inconclusive [activator, single point]"}, {"smiles": "COc1ccc(NC(=O)CCSc2ccc(F)cc2)cc1", "Potency": "inconclusive [activator, partial curve, poor fit]"}, {"smiles": "Clc1ccc(Cc2nnc(-c3cccs3)o2)cc1", "Potency": "inconclusive [activator, partial curve, poor fit]"}, {"smiles": "COC(=O)C(Cc1c[nH]c2ccccc12)NC(=O)c1ccccc1Br", "note": "(stereo not given)", "activity change, positive = activation": "inactive: -1.68%"}, {"smiles": "CC1CCCCC1NC(=O)c1ccc(CNc2c(N3CCCC3)c(=O)c2=O)cc1", "note": "(stereo not given)", "Potency": "inconclusive [activator, single point]"}, {"smiles": "COc1ccc(C2CC(=O)c3ccccc3O2)cc1", "note": "(stereo not given)", "Potency": "inconclusive [activator, partial curve, poor fit]"}, {"smiles": "Cc1ccc2nc(-c3ccc(NC(=O)CN4CCN(C(=O)c5ccco5)CC4)cc3)sc2c1", "Potency": "inconclusive [activator, partial curve, poor fit]"}, {"smiles": "COC(=O)COc1cccc(NC(=O)c2cc(OC)cc(OC)c2)c1", "activity change, positive = activation": "inactive: -5.76%"}, {"smiles": "COc1ccc(C)cc1NC(=O)CO/N=C(\\N)CC(=O)NC1CCCCC1", "Potency": "inconclusive [activator, single point]"}, {"smiles": "COCCn1c(N)c(N(Cc2ccccc2)C(=O)CSCC(=O)Nc2ccc(C)cc2)c(=O)[nH]c1=O", "activity change, positive = activation": "inactive: -1.1%"}, {"smiles": "Fc1ccccc1NC(=S)NCCc1ccccc1", "Potency": "inconclusive [activator, full curve, poor fit]"}, {"smiles": "Cc1cc(C)c2sc(NC(=O)c3ccc([N+](=O)[O-])o3)nc2c1", "Potency": "inconclusive [activator, single point]"}, {"smiles": "COc1cc(C(=O)O/N=C(\\N)c2ccccn2)cc(OC)c1OC", "Potency": "inconclusive [activator, single point]"}, {"smiles": "CCOc1ccc(/C=C/C2=NNC(=O)CC2)cc1", "activity change, positive = activation": "inactive: 2.77%"}, {"smiles": "O=Cc1cn(CCOc2ccccc2)c2ccccc12", "Potency": "inconclusive [activator, single point]"}, {"smiles": "CCn1c(O)c(C=Nc2ccccc2)sc1=S", "Potency": "inconclusive [activator, full curve, poor fit]"}, {"smiles": "COc1ccc(-n2nc3ccc(NS(C)(=O)=O)cc3n2)cc1Cl", "activity change, positive = activation": "inactive: 15.9%"}, {"smiles": "COc1ccc(Nc2nc(-c3c[nH]c4ccccc34)cs2)cc1", "Potency": "inconclusive [activator, partial curve, poor fit]"}, {"smiles": "CCc1ccc(-c2nc(CN3CCC(C(=O)NCc4ccccc4OC)CC3)c(C)o2)cc1", "activity change, positive = activation": "inactive: -1.08%"}, {"smiles": "C=C(C)CNC(=O)CCc1nnc(C2(c3ccc(Cl)cc3)CCC2)o1", "activity change, positive = activation": "inactive: 8.75%"}, {"smiles": "COc1ccc(-c2csc(NC(=O)c3c(C)noc3C)n2)cc1", "Potency": "inconclusive [activator, full curve, poor fit]"}, {"smiles": "CCc1ccc(NS(=O)(=O)c2ccc3[nH]cc(C(=O)N(C)Cc4ccco4)c(=O)c3c2)cc1", "activity change, positive = activation": "inactive: 0.409%"}, {"smiles": "Cc1cccc2c1-c1sc(C(=O)N3CCc4ccccc4C3)cc1CO2", "Potency": "inconclusive [activator, single point]"}, {"smiles": "COc1ccc(NC(=O)N2CCCC(c3nc(-c4ccc(C(C)C)cc4)no3)C2)cc1", "note": "(stereo not given)", "Potency": "inconclusive [activator, partial curve, poor fit]"}, {"smiles": "O=C(O)CCc1ccc(S(=O)(=O)Nc2ccccc2C(=O)NCCc2ccccc2)cc1", "Potency": "inconclusive [activator, full curve, poor fit]"}, {"smiles": "CCCCCOc1ccc(Cl)cc1CN1CCOCC1", "Potency": "inconclusive [activator, single point]"}, {"smiles": "CC(=NCc1ccco1)c1c(C)[nH]n(-c2nc3ccccc3s2)c1=O", "Potency": "inconclusive [activator, partial curve, poor fit]"}, {"smiles": "O=C(/C=C/c1ccc([N+](=O)[O-])cc1)c1cccnc1", "activity change, positive = activation": "inactive: -29.8%"}, {"smiles": "COc1ccc(-c2cc(-c3ccccc3)c(C#N)c(SCC(=O)Nc3ncc(C)s3)n2)cc1", "activity change, positive = activation": "inactive: -3.87%"}, {"smiles": "Cn1c(NCc2c[nH]c3ccccc23)nc2ccccc21", "Potency": "inconclusive [activator, partial curve, poor fit]"}, {"smiles": "Cn1c(SCc2ccccc2F)nc2cccnc21", "Potency": "inconclusive [activator, partial curve, poor fit]"}, {"smiles": "C=CCn1cccc(C(=O)Nc2cc(OC)c(OC)c(OC)c2)c1=O", "activity change, positive = activation": "inactive: -3.62%"}, {"smiles": "CCc1nnc(NC(=O)OCc2ccccc2)s1", "Potency": "inconclusive [activator, partial curve, poor fit]"}, {"smiles": "CC(=O)N1CCc2cc(NC(=O)c3ccc(C)cc3)ccc21", "Potency": "inconclusive [activator, partial curve, poor fit]"}, {"smiles": "O=C(Nc1nccs1)c1ccc(COc2ccccc2)o1", "Potency": "inconclusive [activator, single point]"}, {"smiles": "O=C(COC(=O)c1ccc2ncsc2c1)Nc1ccc(Cl)cc1", "Potency": "inconclusive [activator, single point]"}, {"smiles": "COCC(=O)Nc1nc2ccc(S(C)(=O)=O)cc2s1", "Potency": "inconclusive [activator, partial curve, poor fit]"}, {"smiles": "O=C(O)c1ccc(NS(=O)(=O)c2cc(Cl)ccc2Cl)cc1", "Potency": "inconclusive [activator, single point]"}, {"smiles": "O=C(Nc1cccc(Cl)c1)Nc1ccc2nccnc2c1", "Potency": "inconclusive [activator, partial curve, poor fit]"}, {"smiles": "COc1cccc(CN2CCN(Cc3[nH]c4ccccc4c3C)CC2CCO)c1", "note": "(stereo not given)", "activity change, positive = activation": "inactive: -0.159%"}, {"smiles": "COc1ccc2c(-c3ccccc3)cc(=S)[nH]c2c1", "activity change, positive = activation": "inactive: -1.97%"}, {"smiles": "N#CCCN1CCN(C(=S)c2ccc(-c3ccc(Cl)cc3)o2)CC1", "activity change, positive = activation": "inactive: 14.6%"}, {"smiles": "O=[N+]([O-])c1ccc(Cl)cc1Sc1nc2ccccc2o1", "Potency": "inconclusive [activator, partial curve, poor fit]"}, {"smiles": "Cc1ccc(-c2n[nH]c(=S)n2/N=C/c2cccs2)cc1", "activity change, positive = activation": "inactive: -5.67%"}, {"smiles": "O=C(CC(c1cccs1)S(=O)(=O)c1ccccc1)c1ccc(F)cc1", "note": "(stereo not given)", "Potency": "inconclusive [activator, partial curve]"}, {"smiles": "CSc1ccc(/C=N/NC(=O)c2ccc(C)c(C)c2)cc1", "Potency": "inconclusive [activator, partial curve, poor fit]"}, {"smiles": "CC(C)CCSc1nc(N)c(C#N)cc1C#N", "activity change, positive = activation": "inactive: -11.6%"}, {"smiles": "O=C(NCCN1CCOCC1)c1cc(-c2cccs2)on1", "Potency": "inconclusive [activator, partial curve, poor fit]"}, {"smiles": "O=C(Nc1ccc2c(c1)nc1n2CCOC1)C1CCCCC1", "Potency": "inconclusive [activator, partial curve, poor fit]"}, {"smiles": "Cn1ccnc1SCC(=O)c1c(N)n(C)c(=O)n(C)c1=O", "Potency": "inconclusive [activator, single point]"}, {"smiles": "CCOC(=O)[C@@H]1[C@H]2COc3cc(OC)ccc3[C@H]2N2C(=O)N(c3ccc(C(F)(F)F)cc3)C(=O)[C@]12C", "activity change, positive = activation": "inactive: 5.71%"}, {"smiles": "C=CCNC(=O)c1cccc2c1C(=O)c1ccc(N3CCCC3)cc1S2(=O)=O", "activity change, positive = activation": "inactive: 2.75%"}, {"smiles": "O=C(NCCC1=CCCCC1)c1cnc2n(c1=O)CCS2", "Potency": "inconclusive [activator, full curve, poor fit]"}, {"smiles": "NS(=O)(=O)c1ccccc1NC(=O)c1c(O)c2ccccc2[nH]c1=O", "Potency": "inconclusive [activator, partial curve, poor fit]"}, {"smiles": "NC(=S)N/N=C/c1cccc(O)c1O", "activity change, positive = activation": "inactive: 10.8%"}, {"smiles": "Cc1cc(Cl)c(S(N)(=O)=O)cc1OCC(N)=O", "activity change, positive = activation": "inactive: 2.7%"}, {"smiles": "CCOC(=O)c1cnc(-n2cc(C)cn2)nc1Nc1ccccc1OCC", "activity change, positive = activation": "inactive: 3.39%"}, {"smiles": "Cc1ccc(S(=O)(=O)Nc2cccc3ncccc23)cc1", "activity change, positive = activation": "inactive: -3.71%"}, {"smiles": "CN(C)CCCN(C(=O)c1ccc(S(=O)(=O)N2CCc3ccccc32)cc1)c1nc2ccc(F)cc2s1", "Potency": "inconclusive [activator, single point]"}, {"smiles": "Brc1ccc(/C=N/Nc2ccccc2)cc1", "Potency": "inconclusive [activator, partial curve, poor fit]"}, {"smiles": "Cn1c(N)c(C(=O)CSc2nnc(-c3c[nH]c4ccccc34)n2C2CC2)c(=O)[nH]c1=O", "Potency": "inconclusive [activator, single point]"}, {"smiles": "NC(=O)C1CCN(CC(=O)Nc2ccccn2)CC1", "Potency": "inconclusive [activator, single point]"}, {"smiles": "Cc1ccc(C(=O)Nc2cnc3sc(C)nn3c2=O)cc1", "Potency": "inconclusive [activator, partial curve, poor fit]"}]}]}
